The other results are listed elsewhere or left out. Most values come without repeats; read them as rough.
Legend:
Test in all cases: cell count relative to DMSO control; melanoma cells; higher = more viable cells
Settings in all cases: library dose: low library concentration; 72 h; first compound 0.4 µM
MZ2-MEL = tested on: MZ2-MEL
MeWo = tested on: MeWo
RPMI7951 = tested on: RPMI7951
RVH-421 = tested on: RVH-421
SkMel28 = tested on: SkMel28
SkMel2 = tested on: SkMel2
SkMel30 = tested on: SkMel30
SkMel5 = tested on: SkMel5
UACC257 = tested on: UACC257
UACC62 = tested on: UACC62
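Note: cell number obtained by counting DAPI-stained nuclei in high-throughput microscope images with image analysis software, screen run in 1,536-well plates.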

Compound	cell count (MZ2-MEL)	cell count (MeWo)	cell count (RPMI7951)	cell count (RVH-421)	cell count (SkMel28)	cell count (SkMel2)	cell count (SkMel30)	cell count (SkMel5)	cell count (UACC257)	cell count (UACC62)
C[C@@H](N)c1ccc(C(=O)Nc2ccnc3[nH]ccc23)cc1 + O=C(Nc1ccccc1)c1cc([N+](=O)[O-])ccc1Cl [GW9662] (partner dose 2 µM)	83.5%	80.7%	87.6%	126%	84.8%	109%	126%	85.4%	83.3%	81.3%
CCCCCCCCCCCCCCCCCCOP(=O)([O-])OC1CC[N+](C)(C)CC1 [Perifosine] + C[C@]1(c2nc3c(C(N)=O)cccc3[nH]2)CCCN1 [Veliparib] (partner dose 1.4 µM)	98.9%	90.3%	46.3%	81.8%	101%	101%	81.3%	–	–	32.1%
CCCCCCCCCCCCCCCCCCOP(=O)([O-])OC1CC[N+](C)(C)CC1 [Perifosine] + CNC(=O)c1cc(Oc2ccc(NC(=O)Nc3ccc(Cl)c(C(F)(F)F)c3)cc2)ccn1 [sorafenib] (partner dose 0.4 µM)	88.9%	93.6%	66.6%	92.4%	93.2%	102%	99.8%	–	–	93.1%
CCCCCCCCCCCCCCCCCCOP(=O)([O-])OC1CC[N+](C)(C)CC1 [Perifosine] + C[C@]1(O)C[C@@H](c2nc(-c3ccc4ccc(-c5ccccc5)nc4c3)c3c(N)nccn32)C1 [OSI906] (partner dose 0.4 µM)	83.7%	90%	71.4%	77.5%	64.9%	84.9%	70.1%	–	–	74.6%
C[C@@H](N)c1ccc(C(=O)Nc2ccnc3[nH]ccc23)cc1 + CC(=O)c1c(C)c2cnc(Nc3ccc(N4CCNCC4)cn3)nc2n(C2CCCC2)c1=O [palbociclib] (partner dose 0.04 µM)	75%	62%	59.1%	70.8%	58.3%	91.1%	77.4%	–	–	72.7%
C[C@@H](N)c1ccc(C(=O)Nc2ccnc3[nH]ccc23)cc1 + Clc1ccc(Nc2nnc(Cc3ccncc3)c3ccccc23)cc1 [vatalanib] (partner dose 2 µM)	71.5%	72.1%	77.7%	49.6%	90.5%	103%	115%	–	–	97.4%
C[C@@H](N)c1ccc(C(=O)Nc2ccnc3[nH]ccc23)cc1 + Nc1cccc2c1CN(C1CCC(=O)NC1=O)C2=O [lenalidomide] (partner dose 1 µM)	74.1%	74.5%	69.2%	44.8%	46.5%	103%	99.4%	–	–	78.3%
CCCCCCCCCCCCCCCCCCOP(=O)([O-])OC1CC[N+](C)(C)CC1 [Perifosine] + CN(c1ncccc1CNc1nc(Nc2ccc3c(c2)CC(=O)N3)ncc1C(F)(F)F)S(C)(=O)=O [PF562271] (partner dose 0.08 µM)	99.6%	114%	43.1%	94.9%	84.1%	95.1%	101%	–	–	83%
C[C@@H](N)c1ccc(C(=O)Nc2ccnc3[nH]ccc23)cc1 + Cn1cnc2c(F)c(Nc3ccc(Br)cc3Cl)c(C(=O)NOCCO)cc21 [selumetinib] (partner dose 0.015 µM)	83%	68.1%	86.9%	76.1%	90.3%	87.2%	84%	–	–	98.6%
Cn1sc(=O)n(Cc2ccccc2)c1=O + Cn1nnc2c(C(N)=O)ncn2c1=O [temozolomide] (partner dose 2 µM)	95.8%	103%	98.5%	98.5%	105%	105%	97.4%	–	–	82.7%
CCCCCCCCCCCCCCCCCCOP(=O)([O-])OC1CC[N+](C)(C)CC1 [Perifosine] + Nc1ncn([C@H]2C[C@H](O)[C@@H](CO)O2)c(=O)n1 [decitabine] (partner dose 0.1 µM)	88.8%	99%	73.8%	99.5%	108%	95.8%	103%	–	–	72.7%
Cn1sc(=O)n(Cc2ccccc2)c1=O + CNC(=O)c1cc(Oc2ccc(NC(=O)Nc3ccc(Cl)c(C(F)(F)F)c3)cc2)ccn1 [sorafenib] (partner dose 0.4 µM)	94.4%	110%	75.2%	99%	118%	99.5%	90.4%	–	–	105%
C[C@@H](N)c1ccc(C(=O)Nc2ccnc3[nH]ccc23)cc1 + CS(=O)(=O)CCNCc1ccc(-c2ccc3ncnc(Nc4ccc(OCc5cccc(F)c5)c(Cl)c4)c3c2)o1 [lapatinib] (partner dose 0.8 µM)	71.9%	72.9%	77.6%	64.4%	74%	90.1%	110%	–	–	84.3%
Cn1sc(=O)n(Cc2ccccc2)c1=O + Nc1ncn([C@H]2C[C@H](O)[C@@H](CO)O2)c(=O)n1 [decitabine] (partner dose 0.1 µM)	89.2%	101%	82.8%	84.2%	95.4%	101%	79.2%	–	–	97.9%
CCCCCCCCCCCCCCCCCCOP(=O)([O-])OC1CC[N+](C)(C)CC1 [Perifosine] + Cc1nc(Nc2ncc(C(=O)Nc3c(C)cccc3Cl)s2)cc(N2CCN(CCO)CC2)n1 [dasatanib] (partner dose 0.004 µM)	90.6%	91.4%	50.2%	80.5%	76.1%	87%	85.1%	–	–	74.5%
C[C@@H](N)c1ccc(C(=O)Nc2ccnc3[nH]ccc23)cc1 + CN1CCN(c2ccc3nc(-c4c(N)c5c(F)cccc5[nH]c4=O)[nH]c3c2)CC1 [Dovitinib] (partner dose 0.1 µM)	87.2%	81.2%	65.1%	83.2%	79%	93.6%	88.3%	–	–	89%

Compound	cell count (MZ2-MEL)	cell count (MeWo)	cell count (RPMI7951)	cell count (RVH-421)	cell count (SkMel28)	cell count (SkMel2)	cell count (SkMel30)	cell count (SkMel5)	cell count (UACC257)	cell count (UACC62)
Cn1sc(=O)n(Cc2ccccc2)c1=O + Cc1nc(Nc2ncc(C(=O)Nc3c(C)cccc3Cl)s2)cc(N2CCN(CCO)CC2)n1 [dasatanib] (partner dose 0.004 µM)	90.5%	93.5%	90.1%	92.8%	85.9%	99%	89.7%	–	–	82.7%
C[C@@H](N)c1ccc(C(=O)Nc2ccnc3[nH]ccc23)cc1 + CC(C)C[C@H](NC(=O)[C@H](Cc1ccccc1)NC(=O)c1cnccn1)B(O)O [Bortezomib] (partner dose 0.001 µM)	84%	68.7%	64.5%	76.4%	61.8%	96.2%	95%	–	–	76.5%
CCCCCCCCCCCCCCCCCCOP(=O)([O-])OC1CC[N+](C)(C)CC1 [Perifosine] + CCCCCCCCc1ccc(CCC(N)(CO)CO)cc1 [fingolimod] (partner dose 2 µM)	96%	102%	68.5%	99%	95.3%	98.4%	89.3%	–	–	98.8%
CCCCCCCCCCCCCCCCCCOP(=O)([O-])OC1CC[N+](C)(C)CC1 [Perifosine] + OCc1c[nH]c2ccccc12 [Indole-3-carbinol] (partner dose 0.8 µM)	92.7%	108%	74.1%	99.7%	108%	89.7%	87.7%	–	–	100%
CCCCCCCCCCCCCCCCCCOP(=O)([O-])OC1CC[N+](C)(C)CC1 [Perifosine] + CC(=O)c1c(C)c2cnc(Nc3ccc(N4CCNCC4)cn3)nc2n(C2CCCC2)c1=O [palbociclib] (partner dose 0.04 µM)	97.4%	72%	56.5%	88.7%	69.9%	88.2%	68.1%	–	–	71.9%
Cn1sc(=O)n(Cc2ccccc2)c1=O + CC(C)C[C@H](NC(=O)[C@H](Cc1ccccc1)NC(=O)c1cnccn1)B(O)O [Bortezomib] (partner dose 0.001 µM)	102%	93.6%	83.3%	86.8%	91.4%	107%	115%	–	–	108%
Cn1sc(=O)n(Cc2ccccc2)c1=O + Nc1cccc2c1CN(C1CCC(=O)NC1=O)C2=O [lenalidomide] (partner dose 1 µM)	106%	100%	89%	103%	112%	100%	95.7%	–	–	91.1%
C[C@@H](N)c1ccc(C(=O)Nc2ccnc3[nH]ccc23)cc1 + Nc1nc(F)nc2c1ncn2[C@@H]1O[C@H](CO)[C@@H](O)[C@@H]1O [fludarabine] (partner dose 0.2 µM)	84.3%	28.1%	70.3%	67.6%	48.6%	5.19%	21.5%	–	–	62.7%
C[C@@H](N)c1ccc(C(=O)Nc2ccnc3[nH]ccc23)cc1 + CCCCCCCCc1ccc(CCC(N)(CO)CO)cc1 [fingolimod] (partner dose 2 µM)	74.7%	63.8%	81%	95.5%	80.3%	99%	121%	–	–	87.9%
CCCCCCCCCCCCCCCCCCOP(=O)([O-])OC1CC[N+](C)(C)CC1 [Perifosine] + CC1(C)CCC(c2ccc(Cl)cc2)=C(CN2CCN(c3ccc(C(=O)NS(=O)(=O)c4ccc(N[C@H](CCN5CCOCC5)CSc5ccccc5)c(S(=O)(=O)C(F)(F)F)c4)cc3)CC2)C1 [ABT263] (partner dose 0.4 µM)	95%	66.4%	19.1%	66.7%	94.3%	78.5%	43.3%	–	–	110%
C[C@@H](N)c1ccc(C(=O)Nc2ccnc3[nH]ccc23)cc1 + C=C(c1ccc(C(=O)O)cc1)c1cc2c(cc1C)C(C)(C)CCC2(C)C [Bexarotene] (partner dose 2 µM)	71.9%	63.5%	67.1%	85.4%	61.3%	82.5%	94.6%	–	–	72.6%
C[C@@H](N)c1ccc(C(=O)Nc2ccnc3[nH]ccc23)cc1 + NC1(c2ccc(-c3nc4ccn5c(=O)[nH]nc5c4cc3-c3ccccc3)cc2)CCC1 [MK2206] (partner dose 0.4 µM)	65.2%	55.6%	61.1%	69%	44.6%	92.9%	112%	–	–	71.5%
Cn1sc(=O)n(Cc2ccccc2)c1=O + Cn1c(Nc2ccc(C(F)(F)F)cc2)nc2cc(Oc3ccnc(-c4ncc(C(F)(F)F)[nH]4)c3)ccc21 [CHIR265] (partner dose 0.08 µM)	77.1%	79.5%	49.2%	72.3%	77%	87.9%	55.3%	–	–	64.2%
CCCCCCCCCCCCCCCCCCOP(=O)([O-])OC1CC[N+](C)(C)CC1 [Perifosine] + C[C@@H](Oc1cc(-c2cnn(C3CCNCC3)c2)cnc1N)c1c(Cl)ccc(F)c1Cl [Crizotinib] (partner dose 0.2 µM)	106%	101%	92.2%	92.9%	120%	83.8%	115%	–	–	106%
Cn1sc(=O)n(Cc2ccccc2)c1=O + NC1(c2ccc(-c3nc4ccn5c(=O)[nH]nc5c4cc3-c3ccccc3)cc2)CCC1 [MK2206] (partner dose 0.4 µM)	104%	85.8%	80.8%	98.9%	98.2%	87.1%	73.5%	–	–	93.8%

From the supplement of paper PMC4604168 (melanoma cell lines)
